Measurements taken from PubChem BioAssay AID2551 (National Center for Advancing Translational Sciences (NCATS), 2010).
About 17,000 (5.5%) of roughly 310,000 compounds were called active. Inconclusive results (about 11%) are left out. Calls come from the whole dose curve; as a rule, active = well fitted inhibition curve with a large enough effect; inconclusive = small, poorly fitted or top-dose-only effect, or effect the other way; inactive = no such curve, though single readings can be large or run the other way. Only a part is listed here, and it is no random draw. More than one record can exist for a structure, and the calls need not agree.

Biological target: Nuclear receptor ROR-gamma (Mus musculus) (UniProt P51450)
Sequence of UniProt P51450 (P51450 whole entry, looked up): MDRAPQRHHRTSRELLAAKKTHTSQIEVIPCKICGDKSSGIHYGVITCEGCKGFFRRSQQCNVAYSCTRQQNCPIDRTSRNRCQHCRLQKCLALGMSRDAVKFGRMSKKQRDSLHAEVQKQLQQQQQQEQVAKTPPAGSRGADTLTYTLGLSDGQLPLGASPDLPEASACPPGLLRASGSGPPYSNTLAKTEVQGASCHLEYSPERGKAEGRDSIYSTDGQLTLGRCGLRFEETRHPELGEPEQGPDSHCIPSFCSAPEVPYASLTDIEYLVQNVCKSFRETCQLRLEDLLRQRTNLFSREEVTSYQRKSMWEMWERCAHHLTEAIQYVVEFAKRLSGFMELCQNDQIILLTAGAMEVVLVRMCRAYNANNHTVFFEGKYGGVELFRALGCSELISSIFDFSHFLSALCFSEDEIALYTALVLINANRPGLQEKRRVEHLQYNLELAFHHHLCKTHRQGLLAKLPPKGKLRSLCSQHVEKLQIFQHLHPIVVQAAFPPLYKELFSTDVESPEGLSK
Experiment: qHTS for inhibitors of ROR gamma transcriptional activity; note: nearly all actives have a fitted effect of over 60% in size
Settings: Drosophila S2 Gal4-RORgamma UAS-luciferase reporter, 20 h; series mostly up to 53.6 µM; activity change, negative = inhibition: at the top concentration
Excerpt: NIH Molecular Libraries Probe Production Network [MLPCN] NIH Chemical Genomics Center [NCGC] MLPCN Grant: R03 DA026211-01 Assay Provider: Dan Littman, New York University Assay Overview: The retinoic acid-related orphan receptor (ROR) gamma is a transcription factor that has a central role in the differentiation of Th17 cells, a subset of T helper cells that secrete the inflammatory cytokines IL-17, IL-17F, and IL-22. Th17 cells have been implicated in graft versus host disease, autoimmune disease and asthma. ROR gamma is induced in naive T helper cells in the presence of TGF-beta combined with IL-6, IL-21, or IL-23, and thereafter directs the expression of the Th17 lineage cytokines. To study the mechanism of action of ROR gamma, an insect cell-based assay was screened. This Drosophila Schneider cell line was stably transfected with two vectors: a gene expressing a fusion of the Gal4 DNA binding domain and ROR gamma transactivation domain under the control of the metallothionine promoter and a Photinus luciferase reporter regulated by the Gal4 binding site enhancer, UAS. […] Small molecule inhibitors of ROR gamma activity are detected by a decrease in luciferase reporter activity.
Assay Protocol Summary: For screening, 600 cells in 4 uL/well were dispensed into white solid 1536-well plates (Grenier) using a solenoid-based dispenser. Following transfer of 23 nL compound or DMSO vehicle by a pin tool, the plates were incubated 1 hr at ambient temperature, and 1 uL/well copper sulfate (700 uM final concentration) was added. The plates were centrifuged 15 s at 1000 RPM and incubated 20 hr at ambient temperature. After addition of 1.5 uL Photinus luciferase detection reagent, the plates were incubated 10 min at ambient temperature and then read by an ViewLux (Perkin Elmer) to detect luminescence. Keywords: NIH Roadmap, MLPCN, MLI, MLSMR, qHTS, NCGC, qHTS, nuclear hormone receptor, retinoic acid-related orphan receptor, ROR gamma
% is set by controls: 0 for no effect and ±100 for the full control effect; potency is the fitted concentration of half-maximal effect.

Activity change, negative = inhibition, inactive:
C=CCc1ccc(OC(=O)c2ccccc2)c(OC)c1 -0.229%
CCCC[C@H]1C(=O)N(c2ccccc2)N(c2ccc(O)cc2)C1=O 5.25% [at 2.98 µM]
C#Cc1ccc([C@H]2C=C(C(=O)N3CCN(Cc4ccccc4)CC3)O[C@@H](OCC)[C@@H]2CCCO)cc1 22.2%
COc1cc(-c2ccc(N=Nc3ccc4c(S(=O)(=O)O)cc(S(=O)(=O)O)c(N)c4c3O)c(OC)c2)ccc1N=Nc1ccc2c(S(=O)(=O)O)cc(S(=O)(=O)O)c(N)c2c1O -28.2% [at 16.9 µM]
CC12CCC3c4ccc(O)cc4CCC3C1CCC2O (stereo not drawn) -9.48%
CCNC(=O)/C(=C\c1ccc2c(c1)OCO2)NC(=O)c1ccc(Br)cc1 0.619%
COc1cc(CCN2C(=O)N[C@@H](c3cccc(C(F)(F)F)c3)C(C(C)=O)=C2C)cc(OC)c1OC -27.9%
CCO[C@@H]1OC(C(=O)NCc2ccccc2)=C[C@H](C2CC2)[C@H]1CCCO 6.9%
CCOC(=O)[C@@H]1[C@H]2COc3ccccc3[C@@H]2N2C(=O)N(c3ccc(Cl)cc3)C(=O)[C@]12C -0.14%
COc1ccc(/C=C2\SC(=O)N(CCC(=O)Nc3ccccc3)C2=O)cc1OC 3.35%
COc1cc(O)c2c(=O)c(O)c(-c3ccc(O)c(O)c3)oc2c1 12.2%
Cn1c(=O)c(C(=O)COC(=O)c2cc(C(F)(F)F)nc3ccccc23)c(N)n(Cc2ccccc2)c1=O 16.7%
CC1=NN(c2ccccc2)C(=O)/C1=C\C=C1\N(C)c2ccccc2C1(C)C 9.62%
O=C(N/C(=C\c1cccc([N+](=O)[O-])c1)C(=O)N1CCCCC1)c1cccs1 -6.09%
CCN(CC)C(=O)CC(c1ccc(N(C)C)cc1)c1c(O)cc(OC)cc1OC (stereo not drawn) -27.9%
O=C(O)c1ccc2c3c1cccc3c(=O)n1c3ccccc3nc21 16.5%
NC(CSSCC(N)C(=O)O)C(=O)O (stereo not drawn) -7.83% [at 10 µM]
C[C@@H](C(=O)NCC1CC1)[C@@H]1C[C@@]1(C)[C@@H](NC(=O)OCc1ccccc1)c1ccccc1 22.8%
OCc1cc(C(O)CNCCCCCCOCCCCc2ccccc2)ccc1O (stereo not drawn) 1.99% [at 10 µM]
COC(=O)[C@@]1(Cc2ccc(F)cc2)[C@H]2c3cc(C(=O)N(C)C)n(Cc4c(CO)[nH]cc(C)c4=O)c3C[C@H]2CN1C(=O)c1ccccc1 3.05%
NC(=O)C1=C[C@H](c2ccc(Br)cc2)C[C@H](OCc2ccc(CO)cc2)O1 24.7%
CS(=O)(=O)CCNCc1nc(-c2ccc3ncnc(Nc4ccc(OCc5cccc(F)c5)c(Cl)c4)c3c2)cs1 -43.1%
COC(=O)[C@@H](NC(=O)O[C@@H]1C(=O)c2ccc(OC)cc2O[C@H]1c1cccc(C(F)(F)F)c1)C(C)C -26.7%
CNC(=O)[C@@H]1C[C@H]1[C@@H](NC(=O)OCc1ccccc1)c1ccccc1 -20.8%
CC1CNCCN1S(=O)(=O)c1cccc2cnccc12 (stereo not drawn) -3.74%
O=C(Nc1ccccc1)C1=C[C@H](c2ccc(C(F)(F)F)cc2)C[C@H](OCc2ccc(CO)cc2)O1 -4.9%
CCC[C@@H]1C[C@@]1(CCC)[C@@H](NC(=O)c1ccccc1)c1ccc(C(=O)OC)cc1 12%
C[C@@H](C(=O)CC(=O)OC(C)(C)C)[C@@H](O)c1ccccc1 0.134%
c1ccc2c(c1)Cc1cc3ccccc3nc1-2 -43.5%
CN(C)/C=C1/N=C(c2ccccc2)OC1=O 10.6%
COc1c(O)cc2oc3cc(O)c(CC=C(C)C)c(O)c3c(=O)c2c1CC=C(C)C 22.9%
CC(C)NCC(O)c1cc(O)cc(O)c1 (stereo not drawn) 14.2%
O=C(NCc1ccccc1)C1=C[C@@H](c2ccc(C(F)(F)F)cc2)C[C@@H](OCc2ccc(CO)cc2)O1 9.77%
CC(=O)C1=C(C)N(CC2CC2)C(=O)N[C@H]1c1ccccc1 4.1%
Cc1ccc(N2C(=O)/C(=C/c3ccco3)SC2=S)cc1 21.4%
Cn1c(=O)c(C(=O)COC(=O)c2cc(C(F)(F)F)nc3c(C(F)(F)F)cccc23)c(N)n(CC2CC2)c1=O 14.6%
CN(C/C=C/C#CC(C)(C)C)Cc1cccc2ccccc12 35.1%
O=C(NCc1nc2ccccc2[nH]1)C1=C[C@@H](c2ccc3c(c2)OCO3)C[C@@H](OCc2ccc(CO)cc2)O1 -18.7%
Cc1ccc(Cl)cc1NC(=O)COC(=O)C12CC3CC(CC(C3)C1)C2 -18.3%
COc1ccc2cc1Oc1ccc(cc1)CC1c3c(cc4c(c3Oc3cc5c(cc3OC)CCN(C)C5C2)OCO4)CCN1C (stereo not drawn) -18.8%
O=C(NCc1ccccc1)C1=C[C@H](C2CCCCC2)C[C@H](OCc2ccc(CO)cc2)O1 0.553%
O=C(c1cc2ccccc2o1)N1CCN(Cc2ccccc2)CC1 31.1%
CCOC(=O)c1ccc(N)cc1 6.85% [at 2.98 µM]
O=C(CCCN1C(=O)/C(=C/c2cccs2)SC1=S)NNC(=O)c1cccnc1 -16.7%
CCO[C@@H]1OC(C(=O)NCc2ccccc2)=C[C@H](c2ccc(Br)cc2)[C@H]1CCCO 7.63%
CCN(CC)CCC(c1cc(OC)c(OC)c(OC)c1)c1c(OC)cc(OC)c2c(-c3ccccc3)cc(=O)oc12 (stereo not drawn) -39.1%
COc1ccc(CNC(=O)c2ccc(Br)o2)cc1 30.7%
C[C@@H]1C[C@H]2[C@@H]3C[C@H](F)C4=CC(=O)C=C[C@@]4(C)[C@]3(F)[C@H](O)C[C@]2(C)[C@@]1(O)C(=O)CO -6.73% [at 2.98 µM]
C=C(C)C1CC=C(C)/C(=N\NC(=O)CNc2ccccc2OC)C1 (stereo not drawn) 18.3%
COc1ccccc1C1=Nn2c(nnc2-c2ccccc2C)SC1 -0.543%
CC(C)c1ccc(C2c3[nH]c4ccccc4c3C[C@H]3C(=O)N(c4ccccc4C(=O)N4CCC[C@@H]4C(=O)O)C(=O)N23)cc1 (stereo partly drawn) 41.1%
CCN(CC)CCC(c1ccc2c(c1)OCO2)c1c(OC)cc(OC)c2c(-c3ccccc3)cc(=O)oc12 (stereo not drawn) -31.2%
CCCCCCC(=O)N1C/C=C\C(c2ccc(OC)cc2)N(Cc2ccc(F)cc2)C(=O)C1 (stereo not drawn) -5.05%
CCO[C@H]1OC(C(=O)NCc2ccccc2)=C[C@@H](C)[C@@H]1CCCO -0.0608%
O=C(O)CCn1cc(/C=C/C(=O)c2ccc(Cl)cc2)c(-c2cccc(Br)c2)n1 19.9%
COc1ccc(SCC(CC(C)C)N2CCN(CCc3ccccc3)CCC2=O)cc1 (stereo not drawn) 12.7%

Potency, active:
COc1ccc(-c2cc(C(=O)N/N=C(\C)c3ccco3)c3ccccc3n2)c(OC)c1 6.31 µM
Cc1cc(NC(=O)c2ccccc2)n(-c2nc3ccccc3[nH]2)n1 1 µM
O=C(OC1CCOC1=O)c1ccc(-c2nc3ccccc3s2)s1 (stereo not drawn) 3.55 µM
Cc1nc(-c2ccc(S(=O)(=O)NCc3ccccn3)s2)cs1 10 µM
[O-][n+]1ccccc1SSc1cccc[n+]1[O-] 0.355 µM
CCOC(=O)c1c(-c2ccc(OC)cc2)csc1/N=C/C1C(=O)CCCC1=O 3.16 µM
CC(=O)c1ccc(NC(=S)NC(=O)CC(C)C)cc1 12.6 µM
COc1ccc(NC(=S)N(CCCN2CCCC(C)C2)Cc2cccs2)cc1 (stereo not drawn) 11.2 µM
COc1cc(OC)cc(-c2nnc(NC(=O)Cc3ccc(F)cc3)o2)c1 0.708 µM
CC(=O)SC(C[N+](=O)[O-])c1cn(C(C)=O)c2ccccc12 (stereo not drawn) 11.2 µM
Cc1cc(N=Nc2ccc3ccccc3c2)ccc1O 11.2 µM
O=C(NC(=S)NNC(=O)c1ccco1)c1ccc(Br)cc1 12.6 µM
Cc1ccc(/C=N/Nc2ccc3ccccc3n2)o1 12.6 µM
Cc1ccc(Cl)cc1NC(=S)N(Cc1ccco1)C(C)c1cccs1 (stereo not drawn) 3.55 µM
Cc1[nH]n(-c2ccc(Br)cc2)c(=O)c1/C=N/NC(=O)c1ccccc1 0.282 µM
CCCn1nnnc1NC(=O)c1cc(Cl)ccc1Cl 1.58 µM
CC(C)CC(C)c1cc(N)nc2nc3ccccc3n12 (stereo not drawn) 15.8 µM
O=c1c(/C=N/OCc2ccc(Cl)cc2Cl)c[nH]n1-c1cccc(Cl)n1 12.6 µM
CC(C)CCOCC(O)CCC(=O)NNC(=S)Nc1ccccc1 (stereo not drawn) 11.2 µM
Cc1[nH]n(-c2ccccc2)c(=O)c1/C=N/NC(=O)c1ccoc1C 0.251 µM
Cc1cc(C)n(-c2nc(NCc3cccnc3)c3c4c(sc3n2)COC(C)(C)C4)n1 3.98 µM
c1ccc(-c2ccc(-c3ccccn3)nn2)nc1 5.62 µM
COc1cccc2cc(-c3n[nH]c(=S)n3C)oc12 3.55 µM
O=C(/C=C/Nc1cccc(O)c1)c1ccccc1 5.01 µM
COc1ccc(-c2n[nH]c(=S)n2Cc2ccccc2)cc1OC 11.2 µM
CCOc1cccc(C(=O)NC(=S)Nc2cccnc2)c1 14.1 µM
CCCn1c(=S)[nH]c2sc3c(c2c1=O)CCCC3 0.282 µM
CC(C)(C)Nc1nc(-c2ccccn2)nc2ccccc12 1.41 µM
CCCCCCCCNc1ncnc2ccccc12 2.24 µM

Potency, inactive:
COC(=O)C1C2CC3c4[nH]c5cc(OC)ccc5c4CCN3CC2CC(OC(=O)c2cc(OC)c(OC)c(OC)c2)C1OC (stereo not drawn)
C[C@@H](C(=O)Nc1ccc2ccccc2c1)[C@@H]1C[C@@]1(C)[C@@H](NC(=O)c1cnccn1)c1ccccc1
CC1=CC(C)(C)Nc2ccccc21
Cc1cccc(Nc2ccccc2C(=O)O)c1C
C#CCN(C)CCCOc1ccc(Cl)cc1Cl
CC(C)c1ccc2c(c1)c(SC(C)(C)C)c(CC(C)(C)C(=O)O)n2Cc1ccc(Cl)cc1
COC(=O)[C@@H]1C[C@H]1[C@@H](NC(=O)c1ccccc1)c1ccccc1
O=C1NC(=O)C(c2ccccc2)(c2ccccc2)N1
